Screen size: about 110,000 compounds; about 230 (0.21%) showed an effect of 50% or more. Some of the results follow.
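Also: 30 min substrate incubation versus DMSO and 10 µM JCP410 controls.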

The target in the test is DPAP1 (Plasmodium falciparum, UniProt Q8IIJ9). The experiment in a line: primary screen, percent inhibition; read by cleavage of a fluorogenic dipeptide substrate; higher = more effect of the substance. Details: species or system P. falciparum D10 trophozoite lysates; single well.
DPAP1, sequence (Q8IIJ9 whole entry, looked up): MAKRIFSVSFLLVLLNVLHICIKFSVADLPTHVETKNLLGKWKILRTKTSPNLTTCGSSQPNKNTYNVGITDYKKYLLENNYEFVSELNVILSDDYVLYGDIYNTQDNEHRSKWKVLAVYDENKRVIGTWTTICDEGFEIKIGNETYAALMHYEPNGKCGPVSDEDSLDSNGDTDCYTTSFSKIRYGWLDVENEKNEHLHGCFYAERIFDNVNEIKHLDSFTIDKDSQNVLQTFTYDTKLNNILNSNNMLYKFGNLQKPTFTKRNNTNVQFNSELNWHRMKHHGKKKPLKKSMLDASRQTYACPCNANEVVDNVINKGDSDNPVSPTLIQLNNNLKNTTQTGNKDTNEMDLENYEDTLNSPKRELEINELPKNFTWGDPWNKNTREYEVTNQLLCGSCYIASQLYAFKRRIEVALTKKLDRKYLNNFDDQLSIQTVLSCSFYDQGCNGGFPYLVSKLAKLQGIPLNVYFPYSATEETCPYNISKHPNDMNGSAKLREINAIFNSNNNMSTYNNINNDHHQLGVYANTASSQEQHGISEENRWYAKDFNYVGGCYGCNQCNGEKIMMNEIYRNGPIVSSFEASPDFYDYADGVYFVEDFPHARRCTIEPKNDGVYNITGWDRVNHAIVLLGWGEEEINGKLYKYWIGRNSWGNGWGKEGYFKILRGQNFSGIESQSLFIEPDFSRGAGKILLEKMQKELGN
`N#Cc1ccccc1S(=O)(=O)N1CCC(c2nc(O)c3nnn(Cc4ccccc4)c3n2)CC1`: the “% Inhibition @ 10 uM” value is reported as 0.401%. Regarding `COc1ccc(-c2[nH]nc3c2C(c2ccc(Cl)cc2Cl)C(C#N)=C(N)O3)cc1OC` (centres unmarked), the “% Inhibition @ 10 uM” value came to 19%. Next, `Cc1ccc(C(=O)Nc2cc(Cl)ccc2C(=O)O)cc1C`: 7.82%. `Cc1ccc(C(=O)C2=C(O)C(=O)N(c3nc4ccccc4s3)C2c2ccc3c(c2)OCO3)cc1` (centres unmarked): the “% Inhibition @ 10 uM” value is on record as -6.69%.

Regarding `CCc1c(O)nc2ccccc2c1O`, the “% Inhibition @ 10 uM” value was determined as 4.35%. As for `O=C1CC(c2ccccc2)c2c(ccc3ccccc23)O1` (centres unmarked), the “% Inhibition @ 10 uM” value was 0.565%.

As for `CCCCCC(=O)N(CN1C(=O)c2ccccc2C1=O)c1cccc(C(=O)O)c1`, the “% Inhibition @ 10 uM” value amounted to 3.92%. Next, `COc1ccc(CCNC(=O)C2CCC(CNS(=O)(=O)c3ccccc3)CC2)cc1OC` (centres unmarked): -4.53%. For `Nc1c(-c2ccccc2)cnn1-c1ccc(C(=O)O)cc1`, the “% Inhibition @ 10 uM” value is -5.38%. For the compound `Cc1c(/C=c2/sc3nc4ccccc4n3c2=O)c2ccccc2n1C`, the “% Inhibition @ 10 uM” value is -8.57%. As for `CCN(CC)c1nc(-c2ccccc2)cc(-c2ccc(Br)cc2)n1`, the “% Inhibition @ 10 uM” value was -0.856%. As to `CC(C)c1nc2sc3c(NCCO)ncnc3c2c2c1CCCC2`, the “% Inhibition @ 10 uM” value came to 5.11%.

Take `CC(C)(C)NC(=O)CSc1nnnn1-c1ccc(C(=O)O)cc1`: the “% Inhibition @ 10 uM” value came to 3.25%. For `Cn1c(C(=O)NCc2ccccc2Br)cc2occc21`, the “% Inhibition @ 10 uM” value was 1.52%. Take `COc1cc2ccccc2cc1C(=O)Nc1ccc(N2CCOCC2)cc1`: the “% Inhibition @ 10 uM” value is -2.53%. For the compound `CCn1c(SCC(=O)NCCc2ccccc2)nc2c1c(=O)n(C)c(=O)n2C`, the “% Inhibition @ 10 uM” value is recorded as -0.68%.

Consider `Cc1ccc(-n2ncc(C(=O)O)c2-n2cccc2)cc1`, for which the “% Inhibition @ 10 uM” value is -0.0309%.

Turning to `COc1ccc(N2C(=O)CC(N3CCN(c4ccccn4)CC3)C2=O)cc1` (centres unmarked), the “% Inhibition @ 10 uM” value worked out at 2.24%.

`Cc1nn(C(C)C(=O)NCC(C)c2ccccc2)c(=O)c2c1sc1ccccc12` (centres unmarked): the “% Inhibition @ 10 uM” value was found to be 0.0811%. Take `CC1=NN(c2ccccc2)C(=O)/C1=C\c1cccc2ccccc12`: the “% Inhibition @ 10 uM” value is reported as -3.03%. On to `O=C(Nc1ccc(Cl)cc1Cl)c1ccccc1Cl`, for which the “% Inhibition @ 10 uM” value is -1.62%. Consider `CCCN1CCC(NCCc2cccc(Cl)c2)CC1`, for which the “% Inhibition @ 10 uM” value is -6%.

With `COc1ccccc1CNCc1cc(OC)c(OC)cc1OC`, the “% Inhibition @ 10 uM” value is given as -1.24%. Consider `O=C(Nc1ccc2c(c1)C(=O)OC2)Nc1cccc2ccccc12`, for which the “% Inhibition @ 10 uM” value turned out to be 0.774%. `CC(c1ccccc1)n1cnc2c(cnn2-c2ccccc2)c1=O` (centres unmarked): the “% Inhibition @ 10 uM” value was -1.75%. As for `COc1ccc(C2CC(C(F)(F)F)n3ncc(C(=O)NCc4cn(C)nc4C)c3N2)cc1OC` (centres unmarked), the “% Inhibition @ 10 uM” value was -4.16%. Regarding `Cc1nc(N)nc2c1C(=O)CC(C)(C)C2`, the “% Inhibition @ 10 uM” value is 1.84%. `COC(=O)c1cc(-c2ccccc2Cl)no1`: the “% Inhibition @ 10 uM” value stood at 17.4%. With `COc1ccc2oc(=O)c(-c3csc(N)n3)cc2c1`, the “% Inhibition @ 10 uM” value came out at 3.15%.

With `COc1ccc2c(CNCc3ccccc3C)c(C(=O)O)n(Cc3ccc(F)cc3)c2c1`, the “% Inhibition @ 10 uM” value was -4.16%.

In the case of `CN1C(=O)CC(C(=O)Nc2ccccc2F)S/C1=N\c1ccccc1` (centres unmarked), the “% Inhibition @ 10 uM” value is recorded as 0.385%. Regarding `Cc1ccc(C)c(Nc2nc(-c3ccc(Cl)cc3)c(C)s2)c1`, the “% Inhibition @ 10 uM” value is 6.4%. Next, `COC(=O)CCCC[C@@H]1SC[C@@H](NC(=O)c2ccccc2)[C@@H]1O`: 0.162%. As for `Cc1ccc(NC(=O)CN2C(=O)N/C(=C/c3cc(C)n(-c4ccccc4C)c3C)C2=O)cc1`, the “% Inhibition @ 10 uM” value is given as -2.99%.

As to `CC(=O)Nc1ccc(NC(=O)c2ccc(-c3ccccc3)cc2)cc1`, the “% Inhibition @ 10 uM” value was -1.29%.

As to `CCn1c(C(=O)Nc2ccsc2C(=O)OC)cc2sc(Cl)cc21`, the “% Inhibition @ 10 uM” value is -3.3%. Turning to `CC(C)CC(NC(=O)c1ccc(NC(=O)Nc2nc[nH]n2)cc1)C(=O)NCC#N` (centres unmarked), the “% Inhibition @ 10 uM” value is -3.97%.

Consider `Cc1ccc(C(C)C)c(OCC(O)CN2CCCCCC2)c1` (centres unmarked), for which the “% Inhibition @ 10 uM” value worked out at 0.992%. Consider `O=C(COc1ccc(Cl)cc1Cl)Nc1cc(Cl)c(Cl)cc1Cl`, for which the “% Inhibition @ 10 uM” value is -0.856%. With `COc1ccc(CN2CCN(c3ccccn3)CC2)cc1OC`, the “% Inhibition @ 10 uM” value is -4.61%.

Consider `O=C(C(NS(=O)(=O)c1cccc2nsnc12)c1ccccc1)N1CCOCC1` (centres unmarked), for which the “% Inhibition @ 10 uM” value is 3.63%. As for `CCOC(=O)C1=C(CN2CCOCC2)NC(=O)NC1c1ccco1` (centres unmarked), the “% Inhibition @ 10 uM” value was -2.83%. Next, `CCOc1ccc(NC(=O)c2cc3ccccc3cc2O)cc1`: -5.23%. Consider `O=[N+]([O-])c1ccc(N2CCN(C3CC4CCC3C4)CC2)cc1` (centres unmarked), for which the “% Inhibition @ 10 uM” value is -4.75%.

For the compound `COc1cccc(-c2cn3cccc(N)c3n2)c1`, the “% Inhibition @ 10 uM” value was 2.27%. For `O=C(Nc1ccc2ccccc2c1)c1nc2ccccc2s1`, the “% Inhibition @ 10 uM” value is 0.726%. For `Cc1cc(C)n2nc(SCC(=O)Nc3cccc(Cl)c3)nc2n1`, the “% Inhibition @ 10 uM” value is -1.44%. Next, `O=S(=O)(NCc1ccncc1)c1cc(Cl)ccc1Cl`: 1.38%.

As to `O=C(c1cnn(-c2ccccc2)c1-n1cccc1)N1CCC2(CC1)OCCO2`, the “% Inhibition @ 10 uM” value stood at 1.8%. Next, `O=[N+]([O-])c1ccc(N2CCOCC2)c2nonc12`: 8.56%; `CCOC(=O)c1c(C)c(-c2ccccc2)n(CC(=O)N2CCN(C(C)CC)CC2)c1C` (centres unmarked): 6.38%; `CC(C)OC(=O)c1cc2cc(Br)cc(Br)c2oc1=O`: 5.37%.

For `Cc1cc(F)ccc1NC(=O)c1c(Cl)c(C)nn1C`, the “% Inhibition @ 10 uM” value is listed as 2.45%.

Consider `Cc1cc(C)c2c(NC(=O)CN3CCCCC3)csc2n1`, for which the “% Inhibition @ 10 uM” value is -2.05%.

In the case of `O=c1[nH]c(=O)n(Cc2ccccc2)c2c1C(C(F)(F)F)(C(F)(F)F)NC(Cc1ccccc1)=N2`, the “% Inhibition @ 10 uM” value is -3.39%. Next, `CC1CCN(C(=O)Cn2cc(C(=O)C3CCCCC3)c3ccccc32)CC1`: -1.33%.

`CC/C(C)=C(\C#N)C(=O)Nc1ccc(Cl)cc1`: the “% Inhibition @ 10 uM” value is recorded as 1.08%.

As to `CC1=C(C(=O)OCc2ccccc2)C(c2ccccc2C)C(C#N)=C(N)O1` (centres unmarked), the “% Inhibition @ 10 uM” value was -5.6%.

`CCCn1c(=O)c2sccc2n2c(CCCC(=O)NCc3ccc(F)cc3)nnc12`: the “% Inhibition @ 10 uM” value was -4.17%. As to `COc1ccccc1C1CC(c2ccccc2)=NN1c1ccccc1` (centres unmarked), the “% Inhibition @ 10 uM” value is -4.85%.

Regarding `COc1ccc(Cl)cc1NC(=O)c1ccc(N(C)S(C)(=O)=O)cc1`, the “% Inhibition @ 10 uM” value came out at 2.48%. Next, `CCCCNc1nc2ccccc2c2nc(CCn3c(C)nc4ccccc43)nn12`: -5.33%. For `CCC(CC)c1nn2c(=O)cc(CSc3n[nH]c(N)n3)nc2s1`, the “% Inhibition @ 10 uM” value is -3.95%. Regarding `CCOC(=O)N1CCN(C(=O)CN(c2cc(Cl)ccc2C)S(C)(=O)=O)CC1`, the “% Inhibition @ 10 uM” value is on record as -0.0619%. Next, `Cc1ccccc1CN(c1ccc(C(=O)NC2CC2)cc1)S(C)(=O)=O`: -10%.

These data come from article PMC6919601, “Identification of Plasmodium dipeptidyl aminopeptidase allosteric inhibitors by high throughput screening” (PLoS ONE, 2019).
